According to publication PMC6919601, “Identification of Plasmodium dipeptidyl aminopeptidase allosteric inhibitors by high throughput screening” (PLoS ONE, 2019):
Among all 110,000 compounds or so, about 230 (0.21%) showed an effect of 50% or more. The list shows a part of the results.

The compounds below were run against DPAP1 (Plasmodium falciparum, UniProt Q8IIJ9) (assay: primary screen, percent inhibition; read by cleavage of a fluorogenic dipeptide substrate; higher = more effect of the substance).
DPAP1, sequence (Q8IIJ9 whole entry, looked up): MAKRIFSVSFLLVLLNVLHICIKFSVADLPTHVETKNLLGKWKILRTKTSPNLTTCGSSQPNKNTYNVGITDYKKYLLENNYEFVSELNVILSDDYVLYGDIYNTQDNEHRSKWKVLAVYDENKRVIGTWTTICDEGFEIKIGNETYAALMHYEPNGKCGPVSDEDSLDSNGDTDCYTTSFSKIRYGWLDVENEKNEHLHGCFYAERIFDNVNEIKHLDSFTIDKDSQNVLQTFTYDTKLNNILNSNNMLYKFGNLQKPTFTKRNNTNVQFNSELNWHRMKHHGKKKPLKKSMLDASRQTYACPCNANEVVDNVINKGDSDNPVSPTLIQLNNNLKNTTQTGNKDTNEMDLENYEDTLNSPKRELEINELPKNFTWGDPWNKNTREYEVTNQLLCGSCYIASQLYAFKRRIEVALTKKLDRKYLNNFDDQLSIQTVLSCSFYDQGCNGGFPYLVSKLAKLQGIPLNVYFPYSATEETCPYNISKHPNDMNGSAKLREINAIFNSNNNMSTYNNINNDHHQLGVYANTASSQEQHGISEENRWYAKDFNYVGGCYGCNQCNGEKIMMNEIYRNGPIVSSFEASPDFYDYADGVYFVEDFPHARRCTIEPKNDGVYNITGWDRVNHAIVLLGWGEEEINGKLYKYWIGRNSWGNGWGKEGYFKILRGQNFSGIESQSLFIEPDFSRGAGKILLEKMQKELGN
Design: species or system P. falciparum D10 trophozoite lysates; single well
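Also: 30 min substrate incubation versus DMSO and 10 µM JCP410 controls.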

Row | Compound | % Inhibition @ 10 uM
1 | O=C(CSc1ccccc1C(=O)O)Nc1ccccc1F | -1.55%
2 | COc1ccc(Nc2nc(NCC3CCCO3)c3ccccc3n2)cc1 (stereo not drawn) | -4.12%
3 | O=C(c1ccco1)N1CCN(c2nc3ccccc3n3nnnc23)CC1 | 2.76%
4 | Cn1cnc2c(=O)oc3ccc(S(=O)(=O)N4CCOCC4)cc3c21 | -7.88%
5 | COc1ccc(Cl)cc1-c1nc(N)nc(NC2CCCCC2)n1 | 0.583%
6 | COc1ccc(C2Nc3ccccc3NC3=C2C(=O)NC3)cc1OC (stereo not drawn) | 2.86%
7 | O=C(Nc1ccccc1O)c1ccccc1F | -1.17%
8 | Cc1ccc(S(=O)(=O)N2CCN(C(=O)CC(C)C)CC2)cc1 | -3.4%
9 | COCc1cc(C)nc2sc(C#N)c(N)c12 | -0.436%
10 | Cc1ccc(C(O)c2nc3ccccc3n2C)cc1 (stereo not drawn) | 2.85%
11 | O=C1NC2(CCNCC2)N=C1c1ccccc1 | 2.33%
12 | CCCn1c(CCC(=O)NCc2ccc(C)cc2)nc2cccnc21 | 0.66%
13 | c1ccc2[nH]c(CN3CCCCC3)nc2c1 | -0.178%
14 | Cc1c(C(=O)C(F)(F)F)c2ccccc2n1CC(=O)NCc1ccc2c(c1)OCO2 | -5.1%
15 | C=CCc1c(C)nc(SC)nc1Nc1ccc(C(C)=O)cc1 | -1.88%
16 | Nc1nc(-c2ccc(-c3ccc(-c4csc(N)n4)cc3)cc2)cs1 | -1.51%
17 | Cc1cc(C)c2c(=O)n(CC(=O)N3CCN(Cc4ccccc4)CC3)sc2n1 | 17.8%
18 | CCOc1ccc(N/C(=N\C(C)=O)Nc2nc(C)cc(C)n2)cc1 | -1.08%
19 | O=C(NC12CC3CC(CC(C3)C1)C2)OCCNc1ccccc1 | 0.815%
20 | COc1nc2c(c(=O)n(C)c(=O)n2C)n1Cc1ccc(C#N)cc1 | -8.63%
21 | CN(C)c1ccc(C(C2=C(O)CC(C)(C)CC2=O)C2C(=O)CC(C)(C)CC2=O)cc1 (stereo not drawn) | 0.716%
22 | O=C(N/C(=C/c1cccs1)C(=O)N1CCCC1)c1cccs1 | 1.01%

Row | Compound | % Inhibition @ 10 uM
23 | CCNC(=O)CN(c1cc(Cl)cc(Cl)c1)S(=O)(=O)c1ccccc1 | 0.956%
24 | O=C(CCn1nc(-c2ccccc2)ccc1=O)NCc1ccccc1Cl | 3.24%
25 | CCCOc1ccc(Br)cc1C1/C(=C(\O)OCC)C(C)=Nc2nnnn21 (stereo not drawn) | 0.0289%
26 | O=C(NCCc1ccc(O)cc1)c1ccc2ccccc2c1 | 3.47%
27 | C[n+]1cn(CC(O)COc2cccc(Cl)c2)c2ccccc21 (stereo not drawn) | 2.95%
28 | O=C(NC1CC1)C1CCN(C(=O)c2ccc(-n3ccc4ccccc43)s2)CC1 | 3.45%
29 | C/C(=C\c1ccccc1)CN1C[C@@H]2C[C@H](C1)c1cccc(=O)n1C2 | 3.22%
30 | Cc1cc(=O)n2nc(N(C)CC(=O)NCC(C)c3ccccc3)sc2n1 (stereo not drawn) | -2%
31 | COc1nc(C)ccc1-c1noc(-c2ccccc2Cl)n1 | 5.3%
32 | COc1ccccc1N1CCN(Cc2ccsc2)CC1 | -1.86%
33 | O=C(c1cc(-c2ccncc2)nc2ccccc12)N1CCN(c2ccccn2)CC1 | 1.16%
34 | CS(=O)(=O)N(CC(=O)N(Cc1ccccc1)Cc1ccccc1)c1cccc(F)c1 | 28.4%
35 | Cc1cc(-c2c(C)[n+]([O-])c(C)c(C)[n+]2[O-])ccc1F | -0.0626%
36 | COc1cc(OC)nc(NC(=O)Nc2cccc(Cl)c2)n1 | -0.999%
37 | CC(C)C(C(=O)NCc1ccccc1)N1Cc2ccccc2C1=O (stereo not drawn) | 0.0322%
38 | CCOc1ccc(-n2cc(-c3ccccc3)c3c(NC(C)COC)ncnc32)cc1 (stereo not drawn) | -1.62%
39 | O=C(O)COc1ccc(S(=O)(=O)NCc2ccccc2)cc1 | 4.31%
40 | COc1cc2c(cc1OC)CN(C(=O)CSc1nnc3ccc4ccccc4n13)CC2 | -2.75%
41 | O=C(c1cccc(C(=O)N2CCN(c3ncccn3)CC2)c1)N1CCN(c2ncccn2)CC1 | -2.9%
42 | CC1=C(C(=O)OCC(C)C)C(c2c(F)cccc2Cl)CC(=O)N1 (stereo not drawn) | -3.51%
43 | CC(=O)c1ccccc1C(=O)NCc1cccnc1 | -1.6%
44 | O=c1c(Cc2ccccc2)c(O)nc2n1CCS2 | 1.42%

Row | Compound | % Inhibition @ 10 uM
45 | COCCN1C(=O)/C(=C\c2ccc(SC)cc2)C(C(=O)OC)=C1C | 0.131%
46 | O=c1oc2ccc([N+](=O)[O-])cc2cc1-c1ccccc1 | -2.51%
47 | Cc1cc(C)n(C(=O)c2cc(F)c(F)cc2C)n1 | -4.24%
48 | CCCCC(=O)Nc1nc2cc(C)c(C)cc2s1 | -2.07%
49 | CCOC(=O)N1CCN(C(=O)CN2C(=O)c3ccccc3S2(=O)=O)CC1 | 8.68%
50 | Cc1ccc(C(=O)Nc2ccccc2C)o1 | 1.57%
51 | CC(C)C(=O)N[C@@H](CC1CCCCC1)C(=O)NCC#N | -0.214%
52 | O=C(Nc1ccc(Cl)c(Cl)c1)C1CCN(C(=O)c2ccccc2)CC1 | -1.17%
53 | Cn1ncc(Cl)c1C(=O)Nc1ccn(Cc2ccccc2)n1 | 5.54%
54 | Cc1ccc2nc3c(cc(C(=O)NCc4cccnc4)c(=N)n3CCc3ccccc3)c(=O)n2c1 | -5.14%
55 | COc1ccc(Sc2ccc(C=C3C(=O)N(C)C(=O)N(C)C3=O)o2)cc1 | -1.7%
56 | CC1(C)CC2=Nc3ncnn3C(c3ccc(Cl)cc3)C2=C(O)C1 (stereo not drawn) | -3.16%
57 | O=S(=O)(c1ccc(F)cc1)N1CCCc2ccccc21 | -2.12%
58 | O=S(=O)(NCCc1ccccc1)c1ccc(Cl)cc1 | -4.08%
59 | COc1ccc(-c2noc(CCCC(=O)NC(C)(C)C)n2)cc1 | 0.347%
60 | CC1CC(C)CN(c2c(-c3ccc(C(C)C)cc3)c(=O)c2=O)C1 (stereo not drawn) | 3.84%
61 | OCC1CCCCN1Cc1ccoc1 (stereo not drawn) | -0.636%
62 | CC(C)CCn1cnc2c(oc3ccccc32)c1=O | -3.57%
63 | CS(=O)(=O)N(CC(=O)NCCc1ccccc1)c1ccc(Cl)c(Cl)c1 | -0.992%
64 | Cc1ccc(CNC(=O)C2CC(=O)N(c3ccc(OCC(=O)N4CCCC4)cc3)C2)cc1 (stereo not drawn) | -2.75%
65 | Cc1cc(N2CCC(C(=O)NCc3ccccc3)CC2)n2nc(C)c(-c3ccc(Cl)cc3)c2n1 | -1.89%
66 | COc1ccc(CN2CCN(Cc3ccc(OC)c(OC)c3OC)CC2)cc1 | -7.9%
